Over roughly 33,000 sequences, “E-score (-0.5 to 0.5)” has its median near -0.01; the highest 2% begin near 0.26. The list shows a part of the results.
molecular target: Ste12 (UniProt P13574); assay: PBM E-score (8-mer binding enrichment) (E-score (-0.5 to 0.5)); higher = stronger / more preferred TF binding; most listed sequences are background and not binding sites; details: protein concentration: 200 nM; construct: GST-DNA-binding domain
In short: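 Universal all-10-mer Agilent arrays, fresh or stripped once, were converted to double-stranded form by primer extension. GST-tagged yeast transcription factors from PURExpress in vitro transcription/translation, full-length or DNA-binding domain only, were applied at about 100-200 nM and detected with fluorescent anti-GST. After masliner normalisation, the Universal PBM Analysis Suite scored each ungapped eight-base word together with its reverse complement by E-score.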

Compared with GATTCCCA, AAGCGTTC is lower in “PBM E-score” value: 0.051 for the first, -0.0611 for the second.

Compared with AATAAAAT, ATCTCCAC is lower in “PBM E-score” value: 0.183 for the first, -0.162 for the second.

First: GCCTGGCA
Second: GGTGTAGA
The “PBM E-score” value of the first is lower: -0.11 for the first, 0.0598 for the second.

Compared with AGCACCGG, GCAACAAC is lower in “PBM E-score” value: 0.0797 for the first, -0.0707 for the second.

Compared with CGAAATAA, TCACTTCA is lower in “PBM E-score” value: 0.131 for the first, -0.0724 for the second.

Compared with ATGCAATA, CGAATTCC is lower in “PBM E-score” value: 0.0597 for the first, -0.0287 for the second.

Compared with AGTCCCAC, AAAGCTTA is higher in “PBM E-score” value: -0.133 for the first, 0.0681 for the second.

Going from ACAACCAA to GAGCATAC, the “PBM E-score” value falls from 0.0252 to -0.118.

Compared with TCAGCGCA, GATGCGCA is lower in “PBM E-score” value: 0.0912 for the first, -0.031 for the second.

Going from GGCGGTAC to ATGTGTGG, the “PBM E-score” value falls from 0.157 to 0.0515.

First: AGGTTTGA
Second: AAGAGGAA
The “PBM E-score” value of the first is higher: 0.0835 for the first, 0.0753 for the second.

First: ACATATTA
Second: CTGGTAAG
The “PBM E-score” value of the first is higher: 0.193 for the first, -0.00524 for the second.

Going from ACTCGTTA to AAACTAAC, the “PBM E-score” value rises from -0.243 to 0.259.

Going from ATTAGTCC to AAGACACC, the “PBM E-score” value rises from -0.0349 to -0.00469.

Compared with AGACAACA, TCTCTCAA is higher in “PBM E-score” value: -0.193 for the first, 0.0783 for the second.

Compared with ACAAATAT, GGAGCGTA is lower in “PBM E-score” value: 0.231 for the first, 0.083 for the second.

First: CGGGGCAA
Second: CCCGTACG
The “PBM E-score” value of the first is higher: -0.0685 for the first, -0.163 for the second.

Going from ACGACTGG to CCTGCCTC, the “PBM E-score” value falls from -0.0592 to -0.0655.

Going from CCTTCAAC to ACACGAAC, the “PBM E-score” value falls from 0.0592 to -0.00019.

Compared with CGTTTCAC, CACTAACA is lower in “PBM E-score” value: 0.453 for the first, 0.0628 for the second.

First: ATCGTCAT
Second: TCAGCCCA
The “PBM E-score” value of the first is higher: 0.215 for the first, -0.0557 for the second.

Compared with CATCACTC, AGTGAGCC is higher in “PBM E-score” value: -0.116 for the first, -0.0896 for the second.

Compared with GATCAAAC, AGTTGACG is lower in “PBM E-score” value: 0.179 for the first, 0.019 for the second.

Compared with GAAGCCTA, CTGTCACC is lower in “PBM E-score” value: 0.018 for the first, -0.114 for the second.

First: CTTTAAAG
Second: CATGTCAG
The “PBM E-score” value of the first is higher: -0.0155 for the first, -0.053 for the second.

First: GCTTGGCC
Second: CTAGAATC
The “PBM E-score” value of the first is lower: -0.0163 for the first, 0.00493 for the second.

Going from AATAGTCC to GAACCCCC, the “PBM E-score” value falls from -0.124 to -0.374.

First: CCCTCAGA
Second: ATGCCTCC
The “PBM E-score” value of the first is higher: 0.0505 for the first, -0.0978 for the second.

Compared with GGGAGGAC, CGGACACA is lower in “PBM E-score” value: 0.0558 for the first, -0.0398 for the second.

Compared with ACCGAAGT, AGTAAACC is higher in “PBM E-score” value: -0.0577 for the first, 0.026 for the second.

Compared with CGACGTCA, CAATTAAA is higher in “PBM E-score” value: -0.146 for the first, 0.23 for the second.

Going from CACGGACG to CGCTTGCC, the “PBM E-score” value falls from -0.0618 to -0.062.

First: TTAGAGAA
Second: CAGGATCC
The “PBM E-score” value of the first is lower: -0.105 for the first, 0.00474 for the second.

Going from AATTTCCT to AGACTATA, the “PBM E-score” value rises from 0.0427 to 0.1.

Compared with CCGGTCAG, ATCCGGTC is lower in “PBM E-score” value: 0.0143 for the first, -0.0391 for the second.

Going from GTCCATAA to AATATCCT, the “PBM E-score” value rises from -0.172 to 0.114.

Going from CATCTAAA to AAATGCCT, the “PBM E-score” value falls from 0.124 to 0.025.

First: GACATGTA
Second: ACTGCAAC
The “PBM E-score” value of the first is higher: -0.0417 for the first, -0.0527 for the second.

Going from GCCTAGCA to GCCGAAGA, the “PBM E-score” value rises from -0.254 to -0.106.

First: GGGGCAAA
Second: TGCCTAAA
The “PBM E-score” value of the first is higher: 0.114 for the first, 0.0544 for the second.

Going from CAACGCTG to AGCGTTTA, the “PBM E-score” value falls from 0.0654 to -0.122.

First: CGCTGCCG
Second: TAACTAAA
The “PBM E-score” value of the first is lower: -0.0077 for the first, 0.245 for the second.

Going from GACGGGCC to CCGCGGCC, the “PBM E-score” value rises from -0.203 to 0.174.

Going from ACGTCTTA to AGAATCTG, the “PBM E-score” value rises from -0.0959 to -0.0532.

Going from GCTAAAAA to CACGCATA, the “PBM E-score” value falls from 0.17 to -0.158.

Going from CAGAGTAC to GCGCATAA, the “PBM E-score” value rises from -0.127 to -0.0755.

Compared with ATCTTACC, GCATAGGA is lower in “PBM E-score” value: -0.00834 for the first, -0.135 for the second.
